Experimental data: PubChem BioAssay AID686978 (National Center for Advancing Translational Sciences (NCATS), 2013)
Out of some 420,000 compounds screened, about 64,000 (15%) were called active. The shares of active, inactive and inconclusive entries below differ from those in the screen. Calls follow the shape of the dose curve; as a rule, active = well fitted inhibition curve with a large enough effect; inconclusive = small, poorly fitted or top-dose-only effect; inactive = flat fitted curve, though single readings scatter. No potency is given beside an inconclusive call; the fits are too rough.

assay: qHTS for Inhibitors of human tyrosyl-DNA phosphodiesterase 1 (TDP1): qHTS in cells in absence of CPT; conditions: DT40 Tdp1-/- hTDP1 cells, no CPT, ATP luminescence, 48 h; series mostly up to 46.2 µM; also: nearly all actives have a fitted effect of over 55% in size
Method in brief: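 Readout: luminescence from CellTiter-Glo after 30 min in the dark at RT. Cells: DT40 Tdp1-/- with stable hTDP1, 400/well. Exposure: compounds alone, ≥48 hr, 37 °C.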
Potency is read from the fitted curve at half-maximal effect; tags tell the direction and shape of the fitted curve.

Structure (SMILES)	Potency
C#Cc1ccc([C@H]2C=C(C(=O)O)O[C@@H](OCCCCO)C2)cc1	inactive
O=C(N/N=C/c1ccc(OC(F)F)cc1)c1ccc(CSc2nc3ccccc3[nH]2)cc1	inconclusive [inhibitor, single point]
Cc1ccc2nc(N3C(=O)C(O)=C(C(=O)c4ccc(C)o4)C3c3cccc(O)c3)sc2c1 (stereo not given)	inactive
O=C(Nc1ccccc1N1CCCCC1)c1cccc(Cl)c1	inconclusive [inhibitor, single point]
COc1cccc(/C=N/NC(=O)C[n+]2ccccc2)c1O	inactive
O=C(CCn1c(=O)oc2ccc(Cl)cc21)N1CCN(c2ccccc2)CC1	inactive
COc1ccccc1-c1noc(-c2ccccc2C(=O)Nc2cccnc2)n1	inconclusive [inhibitor, single point]
CCOC(=O)C1(CC2CC2)CCN(Cc2cnc(-c3ccc(OC)cc3)nc2)CC1	active: 16.4 µM
O=C(O)c1ccccc1-c1ccccc1C(=O)Nc1ccc2c(c1)C(O)c1ccccc1-2 (stereo not given)	inactive
CC(=O)Nc1cc(-c2ccc(C(=O)N3CCOCC3)cc2)cn2c(-c3ccc(C(C)=O)cc3)cnc12	active: 11.6 µM
CC(=O)c1ccc(Nc2nc3ccccc3nc2-n2nc(C)cc2C)cc1	inactive
Cc1ccccc1/C=N/NC(=O)Cc1ccc(Cl)cc1	inactive
Cn1c(N)c(C(=O)COC(=O)c2cc(C(F)(F)F)nc3ccccc23)c(=O)n(Cc2ccccc2)c1=O	inconclusive [inhibitor, single point]
CC(=O)c1cccc(NC(=O)Cn2c(=O)oc3cc(S(=O)(=O)NC4CCCC4)ccc32)c1	inconclusive [inhibitor, partial curve, poor fit]
Cn1c(N2CCOCC2)c(/C=N/OC(=O)c2cccnc2Cl)c2ccccc21	inconclusive [inhibitor, single point]
CCc1nc2c(OCC(=O)c3ccc(F)cc3)cccn2c1N(C)C(=O)c1ccccc1F	inconclusive [inhibitor, single point]
O=C(Nc1ccc(SC(F)F)cc1)C1=COCCO1	inactive
CCCCN(C(=S)SC)C1CCS(=O)(=O)C1 (stereo not given)	inactive
Cc1c(Cl)c([N+](=O)[O-])nn1CCCC(=O)Nc1cc(Oc2ccccc2)cc([N+](=O)[O-])c1	inconclusive [inhibitor, single point]
COCCn1nnnc1CN(Cc1ccco1)Cc1cc2cc3c(cc2[nH]c1=O)OCO3	inactive
O=c1c2ccccc2nnn1CCc1ccccc1	inconclusive [inhibitor, single point]
CCOC(=O)c1ccc(S(=O)(=O)Nc2cc(S(=O)(=O)N3CCOCC3)ccc2O)cc1	inconclusive [inhibitor, single point]
C=CCNC(=S)NNC(=O)c1ccc(OCC(C)C)cc1	inconclusive [inhibitor, single point]
Cc1nc(-n2nc(C)c(Cc3ccc(Cl)cc3)c2C)sc1C(=O)N1CCCCC1C (stereo not given)	inconclusive [inhibitor, single point]

Structure (SMILES)	Potency
COc1cccc(NC(=O)CSc2nccn2Cc2ccc3c(c2)OCO3)c1	inconclusive [inhibitor, partial curve, poor fit]
Brc1ccc(-c2cnco2)cc1	inactive
COc1ccc(CCN2CN(S(=O)(=O)c3ccc(C)cc3)c3nc4ccccc4nc32)cc1OC	inconclusive [inhibitor, single point]
COc1ccc(NS(=O)(=O)c2ccc(NC(=S)NC(=O)CC(C)C)cc2)cc1	active: 18.4 µM
O=C(CN1CCN(S(=O)(=O)N2CCCCC2)CC1)Nc1cc(Cl)cc(Cl)c1	inconclusive [inhibitor, single point]
CC(CN1CCN(C)CC1)OC(=O)c1cccc(F)c1 (stereo not given)	inactive
O=C(CN1CCN(C(=O)c2cccc(-n3cnnn3)c2)CC1)Nc1ccccc1Cl	inconclusive [inhibitor, single point]
COC(=O)c1cnc(SCc2ccc(C)cc2)n1C	inconclusive [inhibitor, single point]
COc1ccc(OCC(O)Cn2c(Br)nc3c2c(=O)[nH]c(=O)n3C)cc1 (stereo not given)	inconclusive [inhibitor, single point]
CCN(CC)c1ccc(NC(=O)CN2CCN(CC(=O)Nc3ccccc3F)CC2)cc1	inconclusive [inhibitor, single point]
O=C(CSCc1ccccc1Cl)NCc1ccc(Cl)c(Cl)c1	inconclusive [inhibitor, single point]
CCC(C)(C)N1CC(=O)N(Cc2ccccc2)C(c2ccc(OC)cc2)C1=O (stereo not given)	active: 18.4 µM
CC(=O)C(/C=N/c1cc(-c2ccc(C)cc2)nn1-c1ccccc1)=C(\C)O	inactive
CN(c1cccc(F)c1)c1cc2c(c3c1ccn3C)C1CCC2C1 (stereo not given)	inactive
O=C(C[n+]1ccc2ccccc2c1)c1ccc(F)cc1	inconclusive [inhibitor, partial curve]
OCC(O)C1OC(c2ccco2)OC(CO)C1O (stereo not given)	inactive
Cc1nnc(SCC(=O)N2c3ccccc3C(C)(c3ccccc3)CC2(C)C)s1 (stereo not given)	active: 11.6 µM
Cc1ccc(C(=O)OCc2ccc3c(c2)OCO3)cc1S(=O)(=O)N1CCCCC1	inconclusive [inhibitor, single point]
COc1ccc(CCN=c2c([N+](=O)[O-])nn(-c3cccc(C)c3)n2O)cc1OC	inconclusive [inhibitor, single point]
COc1ccc(NC(=O)CCC(=O)c2ccc(F)cc2)cc1	inconclusive [inhibitor, full curve, poor fit]
COc1ccccc1CNC(=O)C(=O)NCC(c1ccco1)N1CCOCC1 (stereo not given)	inactive
CSc1nc(N)n2nc(-c3ccccc3)cc2n1	inconclusive [inhibitor, partial curve]
Cc1ccccc1CC1(C)C(=O)Nc2ccc(S(=O)(=O)NC3CCCCC3)cc21 (stereo not given)	active: 20.6 µM
O=C(C(Cl)Cl)N1c2ccccc2OCC1c1ccccc1 (stereo not given)	active: 14.6 µM

Structure (SMILES)	Potency
CCn1c(SC2CCOC2=O)nnc1-c1ccc(Cl)cc1 (stereo not given)	inactive
CC(C)(CNC(=O)c1cnn(-c2nccc(-c3ccccc3F)n2)c1C1CC1)N1CCOCC1	inconclusive [inhibitor, single point]
Cc1ccc(C)n1-c1cccc(S(=O)(=O)N2CCOCC2)c1	inconclusive [inhibitor, partial curve, poor fit]
COc1ccc(C2c3c(oc4ccc(Cl)cc4c3=O)C(=O)N2CCCN(C)C)cc1OC (stereo not given)	inconclusive [inhibitor, single point]
Cn1nc(C(=O)Nc2cc(Cl)ccc2N2CCCC2)c2ccccc2c1=O	inconclusive [inhibitor, single point]
COc1ccc(OC)c(NC(=O)C(C)n2nc(C)c3c(C)n(-c4ccccc4)nc3c2=O)c1 (stereo not given)	inconclusive [inhibitor, single point]
CCN(Cc1ccccc1)C(=O)c1[nH]c2ccc(OC)cc2c1C	inconclusive [inhibitor, single point]
Cc1ccc(NC(=O)CN2C(=O)CC(c3ccc(F)cc3)=Nc3ccccc32)cc1F	active: 11.6 µM
CCCn1nc(C(=O)Nc2ccc(S(=O)(=O)Nc3nccs3)cc2)c2ccccc2c1=O	inactive
O=C(O)c1ccc(N/N=C/c2cc3c(cc2[N+](=O)[O-])OCO3)cc1	inconclusive [inhibitor, partial curve]
CCOc1ccc(S(=O)(=O)N(C(=O)c2ccco2)c2cc3sc(=O)oc3c3ccccc23)cc1	inconclusive [inhibitor, single point]
CN(CCc1ccccc1)c1cc2c(c3c1ccn3C)C1CCC2C1 (stereo not given)	inconclusive [inhibitor, single point]
COc1ccc(C(C)NC(=O)c2ccc(Cl)cc2)cc1OC (stereo not given)	inconclusive [inhibitor, partial curve, poor fit]
CC[N+](C)(CC)CCOC(=O)C(O)(c1ccccc1)C1CCCCC1 (stereo not given)	inconclusive [inhibitor, partial curve]
O=C(Nc1cccc(NC(=O)c2cccs2)c1)c1ccc(F)cc1	inconclusive [inhibitor, partial curve]
COc1ccc2c(c1)CCc1c(C(=O)Nc3c(C)nn(Cc4ccc(Cl)cc4)c3C)noc1-2	active: 20.6 µM
CNC(=O)CCCCCNS(=O)(=O)c1ccc(C)cc1	inconclusive [inhibitor, single point]
CC1(C)CC(C(=O)N2CCOc3ccc(CN4CCN(Cc5ccccn5)CC4)cc3C2)CCO1 (stereo not given)	inactive
CCn1cc(CN2N=C(C)CC2c2ccccc2)c(C)n1 (stereo not given)	inactive
Cc1cccc(C)c1NC(=O)CCS(=O)(=O)c1ccc2c(c1)CC(C)N2C(=O)C1CC1 (stereo not given)	inconclusive [inhibitor, single point]
CCN1C[C@@H]2[C@@H]3C(=O)N(Cc4ccccc4)C(=O)[C@@H]3[C@](Cc3ccccc3)(C1=O)N2C(=O)c1ccc(Br)cc1	inconclusive [inhibitor, single point]
CCOc1ccc(NC(=O)Cn2nnc(C(=O)NCc3cccs3)c2N)cc1	inactive
